According to paper PMC4063901:

Target: T1, human P2Y1 receptor (hP2Y1R) protein, N-terminally tagged with mTFP1 (human), P47900
T1 chain: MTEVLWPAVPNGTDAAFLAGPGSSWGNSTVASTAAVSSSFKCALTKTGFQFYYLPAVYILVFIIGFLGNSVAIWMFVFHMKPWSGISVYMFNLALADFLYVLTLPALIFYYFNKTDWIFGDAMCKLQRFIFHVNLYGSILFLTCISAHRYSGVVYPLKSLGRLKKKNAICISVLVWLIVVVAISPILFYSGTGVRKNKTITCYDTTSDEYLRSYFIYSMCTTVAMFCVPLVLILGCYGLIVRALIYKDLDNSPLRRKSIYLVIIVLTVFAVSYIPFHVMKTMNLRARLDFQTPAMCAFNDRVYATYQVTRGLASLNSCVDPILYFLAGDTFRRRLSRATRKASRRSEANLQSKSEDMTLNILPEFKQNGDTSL
Experiment: FRET or BRET; homo-FRET read as loss of steady-state fluorescence anisotropy (ssFAIM) in TIRF illumination, with EPI on the same field for comparison; living HEK293T cells expressing mTFP1-P2Y1R; apyrase 2 U/ml for 4 h at 37°C; HBSS with 1 mM MgCl2 and 1 mM CaCl2; without agonist, with agonist 2-MeS-ATP (10 µM, 30 min, 37°C), or with antagonist MRS 2500 (1 µM)
Conditions: remark: other sources report otherwise

- fluorescence anisotropy r (TIRF mode, no agonist): 0.224
- fraction of constitutive dimers in the cell membrane (before agonist treatment): 45%
B1: human P2Y1 receptor (hP2Y1R) protein, N-terminally tagged with mTFP1, P47900 1-373 (receptor)
chain: T1 chain
